According to the supplement of paper PMC4166925:
± gives the standard deviation of the averaged measurements. Whole data set: some 33,000 sequences, median “E-score (dimensionless, -0.5 to 0.5)” near -0.046, cut for the highest 2% near 0.36. Some of the results follow.

system: T1, SpTbr T-box DNA-binding domain (GST fusion); assay: PBM E-score of 8-mer (E-score (dimensionless, -0.5 to 0.5)); Tbr is Tbrain of the sea star Patiria miniata (Pm) or the sea urchin Strongylocentrotus purpuratus (Sp); higher = stronger binding preference; most listed sequences are background and not binding sites; conditions: the construct has about 5 more residues each side
T1 sequence: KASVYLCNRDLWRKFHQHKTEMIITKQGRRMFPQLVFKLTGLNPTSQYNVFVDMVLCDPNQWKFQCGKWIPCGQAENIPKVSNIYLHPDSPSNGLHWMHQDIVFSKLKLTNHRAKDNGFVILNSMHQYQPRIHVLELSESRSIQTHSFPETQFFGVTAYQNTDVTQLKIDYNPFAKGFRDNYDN
Procedure: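 Universal protein-binding microarray (Agilent AMADID 016060, 60-bp probes with a 35-bp variable region) incubated with 200 nM GST-fused Strongylocentrotus purpuratus Tbr T-box DNA-binding domain (residues 362-554) in PBS pH 7.5. Scored for every ungapped 8-mer (given with its reverse complement) as E-score (range -0.5 to 0.5; >0.45 counts as bound) and Z-score of median probe intensity. Two replicate arrays (datasets 1 and 2).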
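Note: protein at 200 nM in PBS on universal double-stranded arrays.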

Compared with ATTGATCA, AATATCGC is higher in “PBM E-score of 8-mer” value: 0.0353 ± 0.0021 for the first, 0.195 ± 0.093 for the second.

First: CGCGATTA
Second: CCCAAACA
The “PBM E-score of 8-mer” value of the first is higher: 0.276 ± 0.026 for the first, -0.2 ± 0.019 for the second.

Going from GAGTTTCA to CCACGCGC, the “PBM E-score of 8-mer” value rises from -0.0835 ± 0.035 to 0.215 ± 0.083.

Compared with CCGTTGTA, GCGTGTAC is higher in “PBM E-score of 8-mer” value: -0.101 ± 0.0039 for the first, 0.114 ± 0.011 for the second.

Compared with GATTTCGC, ATAGATCG is lower in “PBM E-score of 8-mer” value: 0.312 ± 0.018 for the first, 0.0137 ± 0.011 for the second.

Going from CACGCAGC to AATACTTG, the “PBM E-score of 8-mer” value falls from 0.052 ± 0.043 to -0.0104 ± 0.015.

AGTACGTC and CAAGTTAG are within error of each other in “PBM E-score of 8-mer” value: -0.00329 ± 0.092 for the first, -0.0678 ± 0.046 for the second.

CTCTAAAA and GCAGCTAC are within error of each other in “PBM E-score of 8-mer” value: -0.0823 ± 0.057 for the first, -0.0942 ± 0.041 for the second.

First: AAGATTTA
Second: CGCCTAAA
The “PBM E-score of 8-mer” value of the first is lower: 0.02 ± 0.041 for the first, 0.126 ± 0.0092 for the second.

AGGTCAGC and CCCATGCG are within error of each other in “PBM E-score of 8-mer” value: -0.0859 ± 0.025 for the first, -0.0538 ± 0.042 for the second.

Going from TATATCAA to CAAGTGAG, the “PBM E-score of 8-mer” value rises from -0.174 ± 0.03 to 0.2355 ± 0.00093.

AATAGAGT and CAATGTAA are within error of each other in “PBM E-score of 8-mer” value: 0.0106 ± 0.055 for the first, 0.0482 ± 0.014 for the second.

TAAAACGA and ATGTACCC are within error of each other in “PBM E-score of 8-mer” value: -0.00372 ± 0.1 for the first, -0.0278 ± 0.015 for the second.

ACAACCAG and AAAACCGA are within error of each other in “PBM E-score of 8-mer” value: 0.0822 ± 0.017 for the first, -0.0359 ± 0.11 for the second.

First: AGCAGGGA
Second: ATTAATCA
The “PBM E-score of 8-mer” value of the first is higher: 0.145 ± 0.048 for the first, -0.102 ± 0.018 for the second.

First: TCATGACA
Second: GAACGACC
The “PBM E-score of 8-mer” value of the first is higher: 0.172 ± 0.023 for the first, -0.0991 ± 0.057 for the second.

Going from CCTGAAGA to TCCCGTCA, the “PBM E-score of 8-mer” value rises from -0.196 ± 0.029 to 0.131 ± 0.014.

CTCCACAG and AATGTCTG are within error of each other in “PBM E-score of 8-mer” value: -0.0194 ± 0.034 for the first, -0.0358 ± 0.0065 for the second.

AATCGAGG and CGCGATGA are within error of each other in “PBM E-score of 8-mer” value: 0.143 ± 0.077 for the first, 0.17 ± 0.015 for the second.

First: GCGTCGAA
Second: CCTGCGAA
The “PBM E-score of 8-mer” value of the first is lower: 0.0237 ± 0.026 for the first, 0.367 ± 0.0099 for the second.

CAGCAGAA and CCCATCCC are within error of each other in “PBM E-score of 8-mer” value: -0.184 ± 0.057 for the first, -0.253 ± 0.041 for the second.

Compared with CTAACTAG, CTACACGA is lower in “PBM E-score of 8-mer” value: 0.0135 ± 0.086 for the first, -0.138 ± 0.0086 for the second.

Going from AAACATCC to ATGGCAAA, the “PBM E-score of 8-mer” value falls from -0.0301 ± 0.062 to -0.201 ± 0.017.

Going from AACATGAG to AGAAGAAC, the “PBM E-score of 8-mer” value falls from -0.0951 ± 0.0035 to -0.258 ± 0.0064.

CGCATGAA and AATGTATC are within error of each other in “PBM E-score of 8-mer” value: -0.0519 ± 0.012 for the first, -0.0326 ± 0.042 for the second.

Going from CACACACA to AGGCACAT, the “PBM E-score of 8-mer” value falls from 0.3384 ± 0.00066 to -0.0779 ± 0.053.

First: AGGCAGTG
Second: ACCTCTCG
The “PBM E-score of 8-mer” value of the first is lower: -0.23 ± 0.038 for the first, 0.151 ± 0.0051 for the second.

ATGTAGCG and ATAGAGGA are within error of each other in “PBM E-score of 8-mer” value: -0.0672 ± 0.014 for the first, -0.171 ± 0.091 for the second.

Compared with AGGCCGCC, ACCGGCCA is higher in “PBM E-score of 8-mer” value: -0.211 ± 0.04 for the first, -0.0189 ± 0.059 for the second.

GAGATCCC and AATGGATC are within error of each other in “PBM E-score of 8-mer” value: -0.0427 ± 0.023 for the first, -0.0632 ± 0.037 for the second.

Going from GAGATAAA to ACCTCAGA, the “PBM E-score of 8-mer” value rises from -0.0976 ± 0.1 to 0.0888 ± 0.023.

AGTCACAT and TGTGGTAA are within error of each other in “PBM E-score of 8-mer” value: 0.1318 ± 0.0012 for the first, 0.133 ± 0.02 for the second.

Compared with CTCACAAC, TAATCGGA is lower in “PBM E-score of 8-mer” value: 0.323 ± 0.0075 for the first, 0.0595 ± 0.1 for the second.

ATCCTCGA and CGTTAAGA are within error of each other in “PBM E-score of 8-mer” value: 0.0575 ± 0.0023 for the first, 0.0695 ± 0.037 for the second.

Going from CGCGAGAG to ACGGAAAA, the “PBM E-score of 8-mer” value falls from 0.261 ± 0.023 to -0.112 ± 0.0046.

Compared with AACCGGAC, ATGGTCAC is higher in “PBM E-score of 8-mer” value: -0.18 ± 0.04 for the first, 0.0482 ± 0.081 for the second.

First: ATCCCAGA
Second: CCACAGAG
The “PBM E-score of 8-mer” value of the first is higher: -0.0492 ± 0.043 for the first, -0.188 ± 0.062 for the second.

Compared with TCTATGAA, CCAAAACA is higher in “PBM E-score of 8-mer” value: -0.0704 ± 0.064 for the first, 0.0346 ± 0.013 for the second.

Going from ACCTGCCA to GGCTGCAA, the “PBM E-score of 8-mer” value falls from 0.261 ± 0.023 to -0.0937 ± 0.073.

Compared with TGCTTCAA, ACATTCCA is higher in “PBM E-score of 8-mer” value: -0.12 ± 0.0093 for the first, -0.0743 ± 0.017 for the second.

ACTAATCA and CAATTTCG are within error of each other in “PBM E-score of 8-mer” value: 0.0319 ± 0.027 for the first, 0.026 ± 0.04 for the second.

First: ACTGGCGA
Second: ACGACATC
The “PBM E-score of 8-mer” value of the first is higher: 0.183 ± 0.034 for the first, -0.0327 ± 0.082 for the second.

CACTACCC and AATGGAAG are within error of each other in “PBM E-score of 8-mer” value: 0.0258 ± 0.021 for the first, -0.0645 ± 0.12 for the second.
